Measurements from PubChem BioAssay AID485344 (National Center for Advancing Translational Sciences (NCATS), 2010).
Values joined by “and” are separate entries in the source; they are usually repeats but may differ in a detail not shown here. Identical values can stand only once. About 6,900 (2%) of roughly 340,000 compounds were called active. No stated cut-off is given here; in the data, active means inhibition above about 30%; inactive means below that, where a call was filed. Only a part is listed here, and it is no random draw. The source gives no active or inactive call for entries shown without one.

molecular target: D(2) dopamine receptor (Homo sapiens) (UniProt P14416); test: HTS Assay for Allosteric Antagonists of the Human D2 Dopamine Receptor: Primary Screen for Antagonists; conditions: HEK293 TREx D2 cells, calcium flux, dopamine EC80; at 10 µM; stronger effect = higher value; further: 0% is about no effect
Outline: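 Antagonism is scored as inhibition of an EC80 dopamine-evoked calcium signal in a force-coupled, tetracycline-inducible HEK293 T-REx D2 line, with compound present 180 s before agonist.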

UniProt P14416, sequence (P14416 whole entry, looked up): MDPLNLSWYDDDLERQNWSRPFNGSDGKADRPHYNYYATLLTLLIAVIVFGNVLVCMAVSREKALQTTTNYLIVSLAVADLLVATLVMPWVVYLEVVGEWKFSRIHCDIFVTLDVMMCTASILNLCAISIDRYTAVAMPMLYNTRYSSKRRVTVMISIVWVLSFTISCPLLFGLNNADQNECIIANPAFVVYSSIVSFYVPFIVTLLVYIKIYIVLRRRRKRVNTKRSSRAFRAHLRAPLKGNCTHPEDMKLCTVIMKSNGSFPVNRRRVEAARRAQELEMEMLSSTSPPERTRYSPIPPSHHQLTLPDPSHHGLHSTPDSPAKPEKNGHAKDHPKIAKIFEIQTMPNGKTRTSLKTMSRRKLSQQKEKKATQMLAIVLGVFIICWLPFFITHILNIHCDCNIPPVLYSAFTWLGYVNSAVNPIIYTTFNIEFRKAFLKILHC

Row | Compound | inhibition
1 | CCOC(=O)c1ccccc1NC(=O)CCc1c(C)nc2c(c1C)c(=O)n(C)c(=O)n2C | 16%
2 | CCOc1ccccc1NC(=O)N1CCC(N2CCN(Cc3ccccc3)C(=O)C2=O)CC1 | -13.9%
3 | CC(Oc1ccccc1F)C(=O)N1CCC(c2nc3ccccc3o2)CC1 (centres undefined) | 8.48%
4 | O=c1c2ccccc2nc(-c2ccc(Cl)cc2)n1CCCCOc1ccc(F)cc1 | -10.3%
5 | COc1ccccc1NC(=O)C1=C(C)Nc2nc(SCc3ccccc3)nn2C1c1cccs1 (centres undefined) | -11%
6 | Cc1ccc(NC(=O)CN2C(=O)c3ccccc3Sc3ncccc32)c(C)c1 | -1.43%
7 | O=C(NCCc1ccc(Cl)cc1)c1ccc2c(c1)N(Cc1ccccc1)C(=O)CS2 | -0.979%
8 | O=S(=O)(c1ccccc1)c1nc(-c2ccccc2)oc1NCCCN1CCOCC1 | active: 47.7%
9 | COc1ccccc1N1CCN(CC(O)COc2cccc3ccccc23)CC1 (centres undefined) | active: 80.7% and active: 96.3% and active: 86.3%
10 | O=C(NCCCc1ccccc1)c1ccc2c(c1)sc1nc(-c3ccc(F)cc3)cn12 | -12.3%
11 | Cc1ccccc1CN1C(=O)c2ccccc2Sc2ccc(C(=O)NCCCN3CCOCC3)cc21 | -7.17%
12 | O=C(C1CC1)N1CCN=C1SCc1ccccc1Cl | active: 35.4%
13 | Cc1ccc(Sc2c(C)nn(-c3ccccc3)c2OC(=O)CC(C)C)cc1 | 17.4%
14 | CCOc1ccc(CC(=O)NCc2ccc3c(c2)CCN3C(=O)c2ccc(F)cc2)cc1OCC | 17.8%
15 | CC(=O)c1ccc(S(=O)(=O)Nc2cccc(-c3ccc(N4CCCC4)nn3)c2)cc1 | -20.2%
16 | Cc1ccc(CNC(=O)CCCn2nc(C)n3c(cc4sccc43)c2=O)cc1 | -0.735%
17 | COc1cccc(C(=O)c2cn(CC(=O)Nc3ccc4c(c3)OCCO4)c3nc(C)ccc3c2=O)c1 | -11.6%
18 | CCC(=O)N1CCc2cc(S(=O)(=O)NC(CC(C)C)C(=O)NCc3cccc(OC)c3)ccc21 (centres undefined) | -0.506%
19 | O=C(c1ccc(Br)s1)N1CCN(Cc2ccc3c(c2)OCO3)CC1 | active: 78.4%
20 | COc1cc(NC(=O)C2CCN(S(=O)(=O)c3c(C)noc3/C=C/c3c(C)cc(C)cc3C)CC2)cc(OC)c1 | -11.9%

Row | Compound | inhibition
21 | Cc1cccc(C)c1NC(=O)c1cc2sccc2n1Cc1ccc(F)cc1 | 2.61%
22 | CCN(Cc1ccccc1)S(=O)(=O)c1ccc(F)c(C(=O)Nc2ccc(C(C)C)cc2)c1 | 2.94%
23 | CSc1nc(NCc2ccco2)c2ccccc2n1 | active: 30.7%
24 | Cc1ccc(CNC(=O)c2cn(C)c3ccc(S(=O)(=O)N4CCC(C)CC4)cc3c2=O)cc1 | 9.16%
25 | COC(=O)c1ccc(C)c(NC(=O)c2ccc(CN3CCc4ccccc4C3)cc2)c1 | active: 77.9%
26 | CCCCN(CC)C(=O)Cn1cc2c(n1)-c1c(oc(C(=O)N3CCCC3)c1C)CC2 | 6.24%
27 | CC(=O)C(Sc1nc(-c2ccccc2Cl)nc2c1c(=O)n(C)c(=O)n2C)C(=O)N(C)C (centres undefined) | 9.23%
28 | CCOC(=O)C1CCCN(S(=O)(=O)c2cc(Br)cc3c2N(C(=O)CC)CC3)C1 (centres undefined) | 6.15%
29 | CC1CCN(CCCNC(=O)COc2cc(=O)n(C)c3ccccc23)CC1 | active: 34.1%
30 | Cc1ccc(COC(=O)c2ccc(-c3nnn(Cc4ccc(C)cc4)n3)cc2)cc1 | 0.629%
31 | Cc1ccn2c(=O)c(NC(=O)c3cccc([N+](=O)[O-])c3C)c(C)nc2c1 | -11.3%
32 | Cc1nn(-c2ccc(N3CCCCC3)nn2)c(C)c1CCC(=O)Nc1cccc(F)c1 | 8.36%
33 | COCCN(C(=O)COC(=O)/C=C/c1ccc(C(F)(F)F)cc1)c1c(N)n(Cc2ccccc2)c(=O)[nH]c1=O | active: 45.3%
34 | O=C(NCc1ccc2c(c1)CCN2C(=O)c1ccncc1)c1cccc(F)c1 | -0.0707%
35 | CCOC(=O)c1[nH]c(C)c(C(=O)NCc2ccccc2Cl)c1C | -6.67%
36 | O=C(CCc1nnc2n(Cc3ccccc3Cl)c(=O)c3ccccc3n12)Nc1ccccc1 | 18.5%
37 | COc1ccc(NC(=O)c2ccc(-c3nc(CSc4ccccc4)c(C)o3)cc2)c(OC)c1 | -6.81%
38 | CCCCN(c1ccccc1)S(=O)(=O)c1cc2c3c(c1)C(C)C(=O)N3CCC2 (centres undefined) | -3.63%
39 | CCc1ccc(S(=O)(=O)Nc2ccc3oc(C)c(C(=O)OCCOC)c3c2)cc1 | 6.18%
40 | Cc1cccc(NC(=O)c2cc3c(C)nn(-c4ccccc4)c3s2)c1 | -1.56%

Row | Compound | inhibition
41 | COCCn1c(SCC#N)nnc1-c1ccc(OC)cc1 | active: 54.6%
42 | Cc1ccc(-n2ncc3c(=O)n(Cc4cccc(C(F)(F)F)c4)cnc32)cc1C | -0.274%
43 | CCCCn1c(SCc2ccccc2C#N)nc2c(sc3ccccc32)c1=O | -0.914%
44 | COC(=O)c1ccc(NC(=O)CN2CCN(c3ccccn3)CC2)cc1 | active: 68.5%
45 | Cc1ccc2c(c1)-c1onc(C(=O)N(C)c3ccc(F)cc3)c1CO2 | -9.5%
46 | CCOC(=O)Cn1c(=O)cc(C)c2c(C)nn(-c3cccc(F)c3)c21 | 2.27%
47 | CC(C)(CN1CCN(Cc2ccccc2)CC1)NS(=O)(=O)c1ccccc1 | active: 40.7%
48 | CCN1C(=O)c2ccccc2S(=O)c2ccc(C(=O)N3CCN(c4cccc(Cl)c4)CC3)cc21 (centres undefined) | -3.16%
49 | COC(=O)c1cc(NC(=O)CCc2c(C)nc3nc(C)nn3c2C)cc(C(=O)OC)c1 | 28%
50 | O=C(Cc1ccc(F)cc1)NCCc1csc2nc(-c3ccc(Cl)cc3)nn12 | -11.6%
51 | COc1cc(C(=O)Nc2nc3c(s2)Cc2c(Br)ccc(OC)c2-3)cc(OC)c1OC | -1.35%
52 | CCC(Sc1nc2ccccc2c2nc(CCc3c(C)n[nH]c3C)nn12)C(=O)Nc1ccc(OC)cc1 (centres undefined) | 4.08%
53 | O=C(Nc1nnc(N2CCCCCC2)s1)Nc1ccccc1C(F)(F)F | -3.24%
54 | COc1ccc(Cl)cc1NC(=O)CSc1c2c(nc3ccccc13)CCC2 | 3.6%
55 | O=C(c1ccc2c(c1)N(Cc1ccc(F)cc1)C(=O)c1ccccc1S2=O)N1CCOCC1 (centres undefined) | 1.49%
56 | CCN(c1ccccc1)S(=O)(=O)c1ccc(NC(=O)c2cc(=O)c3cc(C)ccc3o2)cc1 | -3.57%
57 | O=C(c1cc2ccccc2o1)N1CCN(C/C=C/c2ccccc2)CC1 | active: 77%
58 | Cc1ccc(C)n1-c1ccc(C(=O)NC2CCN(Cc3ccccc3)CC2)cc1 | active: 84.8%
59 | Cc1cc(C)c2c(n1)nn1c(C)c(CCC(=O)NCc3ccccc3Cl)c(C)nc21 | 9.79%
